Reference: the supplement of paper PMC8728848
The other results are listed elsewhere or left out.

Legend:
Experiment in all cases: glycan array binding signal (z-score within array); higher = stronger binding
Conditions in all cases: glycan notation: IUPAC condensed, linker removed
[1] = biological target: Neu5Ac(a2-6)Gal(b1-4)GlcNAc(b1-3)Gal(b1-4)GlcNAc(b1-3)Gal(b1-4)GlcNAc(b1-2)Man(a1-3)[Neu5Ac(a2-6)Gal(b1-4)GlcNAc(b1-3)Gal(b1-4)GlcNAc(b1-3)Gal(b1-4)GlcNAc(b1-2)Man(a1-6)]GalNAc
Summary of the method: (§1)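 The Consortium for Functional Glycomics database supplied 3228 glycan arrays, of which those lacking an available protein sequence were dropped. The binding signal, a within-array Z-score, was averaged across arrays of the same protein sequence and across linkers. Negative scores can be read as non-binding.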

[2] = biological target: Neu5Ac(a2-6)Gal(b1-4)GlcNAc(b1-3)Gal(b1-4)GlcNAc(b1-3)GalNAc
Summary of the method: as §1

[3] = biological target: Neu5Ac(a2-6)Gal(b1-4)GlcNAc(b1-3)Gal(b1-4)GlcNAc(b1-3)[Neu5Ac(a2-6)Gal(b1-4)GlcNAc(b1-3)Gal(b1-4)GlcNAc(b1-6)]GalNAc
Summary of the method: as §1

[4] = biological target: Neu5Ac(a2-6)Gal(b1-4)GlcNAc(b1-3)Gal(b1-4)GlcNAc(b1-6)[Gal(b1-3)]GalNAc
Summary of the method: as §1

[5] = biological target: Neu5Ac(a2-6)Gal(b1-4)GlcNAc(b1-3)Gal(b1-4)[Fuc(a1-3)]GlcNAc(b1-3)Gal(b1-4)[Fuc(a1-3)]GlcNAc
Summary of the method: as §1

[6] = biological target: Neu5Ac(a2-6)Gal(b1-4)GlcNAc(b1-3)GalNAc
Summary of the method: as §1

[7] = biological target: Neu5Ac(a2-6)Gal(b1-4)GlcNAc(b1-3)[Neu5Ac(a2-6)Gal(b1-4)GlcNAc(b1-6)]GalNAc
Summary of the method: as §1

[8] = biological target: Neu5Ac(a2-6)Gal(b1-4)GlcNAc(b1-6)GalNAc
Summary of the method: as §1

[9] = biological target: Neu5Ac(a2-6)Gal(b1-4)GlcNAc(b1-6)[Gal(b1-3)GlcNAc(b1-3)]Gal(b1-4)Glc
Summary of the method: as §1

[10] = biological target: Neu5Ac(a2-6)Gal(b1-4)GlcNAc(b1-6)[Gal(b1-3)]GalNAc
Summary of the method: as §1

[11] = biological target: Neu5Ac(a2-6)Gal(b1-4)GlcNAc6S
Summary of the method: as §1

Neu5Ac(a2-6)GalNAc = biological target: Neu5Ac(a2-6)GalNAc
Summary of the method: as §1

[12] = biological target: Neu5Ac(a2-6)GalNAc(b1-4)GlcNAc
Summary of the method: as §1

[13] = biological target: Neu5Ac(a2-6)GalNAc(b1-4)GlcNAc6S
Summary of the method: as §1

[14] = biological target: Neu5Ac(a2-6)GlcNAc(b1-4)GlcNAc
Summary of the method: as §1

[15] = biological target: Neu5Ac(a2-6)GlcNAc(b1-4)GlcNAc(b1-4)GlcNAc
Summary of the method: as §1

Neu5Ac(a2-8)Neu5Ac = biological target: Neu5Ac(a2-8)Neu5Ac
Summary of the method: as §1

[16] = biological target: Neu5Ac(a2-8)Neu5Ac(a2-3)Gal(b1-3)GalNAc(b1-4)[Neu5Ac(a2-3)]Gal(b1-4)Glc
Summary of the method: as §1

[17] = biological target: Neu5Ac(a2-8)Neu5Ac(a2-3)Gal(b1-3)GalNAc(b1-4)[Neu5Ac(a2-8)Neu5Ac(a2-3)]Gal(b1-4)Glc
Summary of the method: as §1

[18] = biological target: Neu5Ac(a2-8)Neu5Ac(a2-3)Gal(b1-4)Glc
Summary of the method: as §1

[19] = biological target: Neu5Ac(a2-8)Neu5Ac(a2-3)Gal(b1-4)GlcNAc
Summary of the method: as §1

[20] = biological target: Neu5Ac(a2-8)Neu5Ac(a2-3)[Gal(b1-3)GalNAc(b1-4)]Gal(b1-4)Glc
Summary of the method: as §1

[21] = biological target: Neu5Ac(a2-8)Neu5Ac(a2-3)[GalNAc(b1-4)]Gal(b1-4)Glc
Summary of the method: as §1

[22] = biological target: Neu5Ac(a2-8)Neu5Ac(a2-8)Neu5Ac
Summary of the method: as §1

[23] = biological target: Neu5Ac(a2-8)Neu5Ac(a2-8)Neu5Ac(a2-3)Gal(b1-4)Glc
Summary of the method: as §1

[24] = biological target: Neu5Ac(a2-8)Neu5Ac(a2-8)Neu5Ac(a2-3)[Gal(b1-3)GalNAc(b1-4)]Gal(b1-4)Glc
Summary of the method: as §1

[25] = biological target: Neu5Ac(a2-8)Neu5Ac(a2-8)Neu5Ac(a2-3)[GalNAc(b1-4)]Gal(b1-4)Glc
Summary of the method: as §1

[26] = biological target: Neu5Ac(a2-8)Neu5Ac(a2-8)Neu5Ac(a2-8)Neu5Ac(a2-3)[GalNAc(b1-4)]Gal(b1-4)Glc
Summary of the method: as §1

[27] = biological target: Neu5Ac(a2-8)Neu5Gc(a2-3)Gal(b1-4)GlcNAc
Summary of the method: as §1

[28] = biological target: Neu5Ac(b2-6)Gal(b1-4)GlcNAc
Summary of the method: as §1

Neu5Ac(b2-6)GalNAc = biological target: Neu5Ac(b2-6)GalNAc
Summary of the method: as §1

[29] = biological target: Neu5Ac9Ac(a2-3)Gal(b1-4)GlcNAc
Summary of the method: as §1

[30] = biological target: Neu5Ac9Ac(a2-6)Gal(b1-4)GlcNAc
Summary of the method: as §1

[31] = biological target: Neu5Gc(a2-3)Gal(b1-3)GlcNAc
Summary of the method: as §1

[32] = biological target: Neu5Gc(a2-3)Gal(b1-3)[Fuc(a1-4)]GlcNAc
Summary of the method: as §1

Neu5Gc(a2-3)Gal(b1-4)Glc = biological target: Neu5Gc(a2-3)Gal(b1-4)Glc
Summary of the method: as §1

[33] = biological target: Neu5Gc(a2-3)Gal(b1-4)GlcNAc
Summary of the method: as §1

[34] = biological target: Neu5Gc(a2-3)Gal(b1-4)GlcNAc(b1-3)Gal(b1-4)GlcNAc(b1-2)Man(a1-3)[Neu5Gc(a2-3)Gal(b1-4)GlcNAc(b1-3)Gal(b1-4)GlcNAc(b1-2)Man(a1-6)]Man(b1-4)GlcNAc(b1-4)GlcNAc
Summary of the method: as §1

[35] = biological target: Neu5Gc(a2-3)Gal(b1-4)[Fuc(a1-3)]GlcNAc
Summary of the method: as §1

[36] = biological target: Neu5Gc(a2-6)Gal(b1-4)GlcNAc
Summary of the method: as §1

Neu5Gc(a2-6)GalNAc = biological target: Neu5Gc(a2-6)GalNAc
Summary of the method: as §1

[37] = biological target: Neu5Gc(a2-8)Neu5Ac(a2-3)Gal(b1-4)GlcNAc
Summary of the method: as §1

[38] = biological target: Neu5Gc(a2-8)Neu5Gc(a2-3)Gal(b1-4)GlcNAc
Summary of the method: as §1

[39] = biological target: Neu5Gc(a2-8)Neu5Gc(a2-3)Gal(b1-4)GlcNAc(b1-3)Gal(b1-4)GlcNAc
Summary of the method: as §1

[40] = biological target: Neu5Gc(a2-8)Neu5Gc(a2-6)Gal(b1-4)GlcNAc
Summary of the method: as §1

[41] = biological target: Neu5Gc(b2-6)Gal(b1-4)GlcNAc
Summary of the method: as §1

B1: mCC1-Hexahis-Precomplexed (Mus musculus), P31809 (protein)
chain: MELASAHLHKGQVPWGGLLLTASLLASWSPATTAEVTIEAVPPQVAEDNNVLLLVHNLPLALGAFAWYKGNTTAIDKEIARFVPNSNMNFTGQAYSGREIIYSNGSLLFQMITMKDMGVYTLDMTDENYRRTQATVRFHVHPILLKPNITSNNSNPVEGDDSVSLTCDSYTDPDNINYLWSRNGESLSEGDRLKLSEGNRTLTLLNVTRNDTGPYVCETRNPVSVNRSDPFSLNIIYGPDTPIISPSDIYLHPGSNLNLSCHAASNPPAQYFWLINEKPHASSQELFIPNITTNNSGTYTCFVNNSVTGLSRTTVKNITVLEPVTQPFLQVTNTTVKELDSVTLTCLSNDIGANIQWLFNSQSLQLTERMTLSQNNSILRIDPIKREDAGEYQCEISNPVSVRRSNSIKLDIIFDPTQGGLSDGHHHHHH
glycan array binding signal (z-score) [1]: 4.99 | glycan array binding signal (z-score) [2]: -0.045 | glycan array binding signal (z-score) [3]: 9.54 | glycan array binding signal (z-score) [4]: 2.09 | glycan array binding signal (z-score) [5]: -0.116 | glycan array binding signal (z-score) [6]: -0.24 | glycan array binding signal (z-score) [7]: -0.139 | glycan array binding signal (z-score) [8]: -0.131 | glycan array binding signal (z-score) [9]: -0.208 | glycan array binding signal (z-score) [10]: -0.104 | glycan array binding signal (z-score) [11]: -0.278 | glycan array binding signal (z-score) (Neu5Ac(a2-6)GalNAc): -0.234 | glycan array binding signal (z-score) [12]: -0.234 | glycan array binding signal (z-score) [13]: -0.231 | glycan array binding signal (z-score) [14]: -0.183 | glycan array binding signal (z-score) [15]: -0.214 | glycan array binding signal (z-score) (Neu5Ac(a2-8)Neu5Ac): -0.252 | glycan array binding signal (z-score) [16]: -0.169 | glycan array binding signal (z-score) [17]: -0.186 | glycan array binding signal (z-score) [18]: -0.171 | glycan array binding signal (z-score) [19]: -0.242 | glycan array binding signal (z-score) [20]: -0.097 | glycan array binding signal (z-score) [21]: -0.146 | glycan array binding signal (z-score) [22]: -0.105 | glycan array binding signal (z-score) [23]: -0.176 | glycan array binding signal (z-score) [24]: -0.04 | glycan array binding signal (z-score) [25]: 1.04 | glycan array binding signal (z-score) [26]: 0.057 | glycan array binding signal (z-score) [27]: -0.232 | glycan array binding signal (z-score) [28]: -0.047 | glycan array binding signal (z-score) (Neu5Ac(b2-6)GalNAc): -0.179 | glycan array binding signal (z-score) [29]: 0.497 | glycan array binding signal (z-score) [30]: -0.267 | glycan array binding signal (z-score) [31]: -0.164 | glycan array binding signal (z-score) [32]: -0.118 | glycan array binding signal (z-score) (Neu5Gc(a2-3)Gal(b1-4)Glc): -0.245 | glycan array binding signal (z-score) [33]: -0.213 | glycan array binding signal (z-score) [34]: -0.031 | glycan array binding signal (z-score) [35]: -0.274 | glycan array binding signal (z-score) [36]: -0.149 | glycan array binding signal (z-score) (Neu5Gc(a2-6)GalNAc): -0.227 | glycan array binding signal (z-score) [37]: -0.001 | glycan array binding signal (z-score) [38]: -0.133 | glycan array binding signal (z-score) [39]: -0.208 | glycan array binding signal (z-score) [40]: -0.191 | glycan array binding signal (z-score) [41]: -0.133
